# Test results taken from PubChem BioAssay AID488969 (Vanderbilt High Throughput Screening Facility, 2010).
# In all, about 110,000 compounds were measured (“z-score”: median about -0.1, highest 2% from about 2 on). The list shows a part of the results.
# Target: Metabotropic glutamate receptor 8 (Rattus norvegicus) (UniProt P70579)
# Experiment: mGluR8 Gi/Go-coupled signaling modulation – cell-based, rat, thallium flux, HTS, primary screen (AID 488969)
# Details: HEK293 rat mGluR8, GIRK (G protein-gated inwardly rectifying potassium channel) thallium flux, FluoZin2; at 10 µM; stronger effect = higher value; submaximal glutamate (EC20) added with thallium
# UniProt P70579, sequence (P70579 whole entry, looked up): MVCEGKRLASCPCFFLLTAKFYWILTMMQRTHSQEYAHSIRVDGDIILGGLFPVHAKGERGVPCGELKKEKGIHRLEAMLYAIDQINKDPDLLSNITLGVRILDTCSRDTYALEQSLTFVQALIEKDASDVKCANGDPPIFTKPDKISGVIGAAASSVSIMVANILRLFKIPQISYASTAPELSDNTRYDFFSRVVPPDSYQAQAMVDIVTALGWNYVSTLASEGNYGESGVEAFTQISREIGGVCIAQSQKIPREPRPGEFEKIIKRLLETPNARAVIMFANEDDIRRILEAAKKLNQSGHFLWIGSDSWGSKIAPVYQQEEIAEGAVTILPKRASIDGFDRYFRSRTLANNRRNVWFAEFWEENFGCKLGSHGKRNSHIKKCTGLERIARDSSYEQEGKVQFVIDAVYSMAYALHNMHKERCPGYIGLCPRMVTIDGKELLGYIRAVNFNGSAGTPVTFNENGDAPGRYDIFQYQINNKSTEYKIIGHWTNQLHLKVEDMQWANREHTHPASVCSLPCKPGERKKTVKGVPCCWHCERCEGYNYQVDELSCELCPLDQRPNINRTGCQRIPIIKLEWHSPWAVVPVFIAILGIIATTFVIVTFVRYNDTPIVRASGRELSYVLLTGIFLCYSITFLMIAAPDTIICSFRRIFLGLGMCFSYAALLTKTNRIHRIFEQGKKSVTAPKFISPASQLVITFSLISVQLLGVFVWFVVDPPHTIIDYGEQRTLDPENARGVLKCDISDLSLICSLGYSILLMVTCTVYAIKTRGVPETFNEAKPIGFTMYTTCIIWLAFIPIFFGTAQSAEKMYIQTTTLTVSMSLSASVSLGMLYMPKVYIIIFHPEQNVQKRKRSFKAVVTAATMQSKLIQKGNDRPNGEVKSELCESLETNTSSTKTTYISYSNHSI
row,SMILES,z-score
1,CCN(Cc1cc2ccccc2[nH]c1=O)C(=O)C(C)C,0.118
2,CC(=O)N1N=C(c2ccncc2)OC12CCCCC2,-0.128
3,CCCS(=O)(=O)N1CCCC(C(=O)NCc2ccco2)C1 (configuration not stated),0.0819
4,Cc1nnc(C)n1/N=C/c1cc(Br)ccc1O,-0.176
5,COC(=O)c1cccc(COC(=O)c2ccc(N(C)C)cc2)c1,-0.167
6,COC(=O)CN1C(=O)S/C(=C/c2cc(C)n(C)c2C)C1=O,-0.441
7,C=CCn1c(CNC(=O)CCC)nc2ccccc21,0.4
8,O=C(CN1CCN(c2ccccc2F)CC1)c1ccc2c(c1)OCO2,1.11
9,O=C(CC1CCCC1)Nc1ccc2c(c1)CCC2,0.0619
10,O=C(N/C(=C\c1cccnc1)C(=O)N1CCOCC1)c1cccc(Br)c1,0.0614
11,N#CC1=C(S)N(c2ccccc2)C(c2cccs2)NC1=O (configuration not stated),-0.923
12,CC(C)CC(C(=O)O)N1C(=O)C2C3CC(C2C1=O)C1C(c2ccccc2)c2sc(=O)[nH]c2SC31 (configuration not stated),-0.079
13,O=Cc1cccn1Cc1ccc(Cl)cc1Cl,-0.152
14,COc1cc(C2Nc3ccc4ncccc4c3C3=C2C(=O)CC(C)(C)C3)cc(OC)c1O (configuration not stated),0.0317
15,Cc1ccc(NCN2C(=O)C3C4C=CC(C4)C3C2=O)cc1 (configuration not stated),0.454
16,COc1cccc(/C=N/NC(=O)c2c(-c3ccccc3)noc2C)c1,-0.634

row,SMILES,z-score
1,O=C(NCCc1ccccc1)C1CCN(S(=O)(=O)N2CCC3(CC2)OCCO3)CC1,0.769
2,COc1cccc(CN2CCSCC2)c1,-0.739
3,COC(=O)c1ccccc1OCC(=O)N1CCN(c2ccc(Cl)cc2)CC1,-0.272
4,CCOC1CCCCC1NS(=O)(=O)c1ccc(Cl)cc1 (configuration not stated),0.534
5,c1cnc(N2CCN(c3nc4ccccc4n4cnnc34)CC2)nc1,-0.344
6,O=C(CN1C(=O)c2ccccc2S1(=O)=O)Nc1ccc(S(=O)(=O)N2CCCCCC2)cc1,0.0349
7,COc1ccc(OCC(O)Cn2c(Nc3ccccc3)nc3c2c(=O)n(C)c(=O)n3C)cc1 (configuration not stated),-0.45
8,Cn1cnnc1SCCC(=O)Nc1ccccc1,0.0273
9,O=C(Cc1ccc(Br)cc1)OCC(=O)c1ccc2c(c1)OCCO2,1.25
10,Fc1ccc(C(c2nnnn2Cc2cccs2)N2CCN(C3CCCC3)CC2)cc1 (configuration not stated),1.73
11,O=C(Nc1nc2c(s1)CCCC2)c1ccc(Br)o1,1.13
12,C=CCn1c(CNC(=O)c2cccs2)nnc1SCC(=O)c1ccc(Br)cc1,-0.0812
13,NS(=O)(=O)c1ccc(CCN2C(=O)/C(=C\c3ccc(Cl)cc3)SC2=S)cc1,0.283
14,O=C(Nc1nnc(SCc2ccc(F)cc2)s1)c1ccco1,0.289
15,COc1ccccc1NC(=O)Cn1nnc(-c2ccccc2NC(=O)c2cccs2)n1,0.0987
16,O=C(Nc1ccc(Cl)cc1)Nc1nnc(CSCc2ccccc2Cl)s1,0.0978
